According to the supplement of paper PMC10126150:
Values marked as one replicate rest on one cluster of the flow cell; about a third of the high ones do not repeat.

Test system: ATP
Assay: switch fluorescence ratio, 500 uM ATP over buffer (Cy3 cluster intensity, sum of 5 cycles each) (fold (ratio)); higher = stronger signal-on switching upon ATP binding; sequences stand for … in TCGTCGGCAGCGTCAGATGTGTATAAGAGACAGTTTTTTTTTTTTTTTTTTTTTTTTT…TC
Details: aptamer strand: ATP DNA aptamer (quencher-CACCTGGGGGAGTATTGCGGAGGAAGG + anchor), 100 nM annealed; ATP concentration: 500 uM; one replicate
How it was run: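 Imaging in selection buffer was followed by imaging after 15 min with 500 uM ATP at 22 °C, for Cy3-labelled switching-strand clusters annealed to 100 nM quencher-labelled ATP aptamer on a modified Illumina MiSeq flow-cell. Five of these buffer/ATP cycles ran, separated by NaOH stripping and re-annealing. The fluorescence ratio per cluster is summed target-cycle over summed buffer-cycle Cy3 intensity, averaged per switch-domain sequence; clusters outside 100-1000 RFU were removed.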
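Also: ATP exposure 15 min at 22 °C before imaging.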

Sequence | switch fluorescence ratio
ATTGCTAAGG | 1.01
GTTGGGCTCC | 0.942
AGGAATGCT | 1.06
ACTGTTCGCA | 1.04
AATGGATGTC | 0.988
GAATGCTTGT | 1.01
GCGCCAAAC | 1.56
GTACGTAGTC | 1.01
CCGGAAGTTC | 2.87
CGTTTTGTCT | 1.01
TTTACGCGGA | 1.02
CAGATGTGAG | 1.01
GGACACATGA | 1.04
TATCTTAATT | 1.01
TTGCGGAATA | 1.04
GTCATCTCAT | 0.999
AGAGGAGTGG | 0.935
GCTGGCACAG | 1
TATATAGCTC | 1.03
TTAGATGCTT | 0.978
GACCTAAGGA | 1.06
ACGGTCAGGC | 1.04
TCACGGGACG | 1.03
ATGTAATCTT | 1.05
GCTCTCCAGC | 1.04
GATCAACCTG | 1.01

Sequence | switch fluorescence ratio
TCATCTCAGC | 1.04
TGAATGCGTT | 1.01
GGATAGCATA | 0.991
AGAGTTGTGT | 0.979
TCTCCTGGAG | 1.02
GACTGTTCCT | 1.06
TATTACGAGA | 0.987
GGGTTGGCCT | 0.986
GATATGTAGG | 1.03
GCTGTTAGCC | 0.979
ACGTACGGTA | 1.4
TTCTACACT | 0.996
CGTGAGCAAG | 1.13
ACAACCCTG | 1.04
TCCGGCACTA | 1.39
CCACCAGCGT | 2.22
TGTATAGAGA | 1.01
CCTCGATTGG | 1.03
AGAAGTTAGT | 0.957
AAGGCTTTAT | 0.968
ACCTAGACGC | 1.26
ATTCCAAACG | 1.06
AGCAGGGCCA | 1.02
CGTTTCCCCC | 1.24
AATAACTTTA | 1.05
AACGTATTCA | 1.1

Sequence | switch fluorescence ratio
TAGAAGGTTT | 0.971
CGGTTCTTGC | 1.02
TATTAGTGGA | 1
ACAGTAAA | 1.04
TTAGCGGAAC | 1.21
AGGAACGTAT | 1.02
CTTATGTGAT | 0.942
ACCCCGGGAT | 1.57
AAGAAGTATC | 0.978
GATTTGCATT | 0.999
CATCCTGTTT | 1.01
GTCACTCTAA | 1.04
GCATGCGGAC | 1.07
CACACTAATA | 1.08
AGCGCGGGGT | 0.992
GGCTTATGCG | 0.984
AAGGCCCGGC | 0.984
ACCGCTCAC | 4.33
TGGGTTGCTT | 1.02
ACCGTTGCC | 0.982
TTTTGTAAAA | 0.964
GCTATCTTCA | 1.07
ACCAGGAAAC | 0.988
GGGCTGGTAA | 1.04
TTATGTAGCC | 1.06
TTGTCGTCTA | 0.968

Sequence | switch fluorescence ratio
CGAATTTTCC | 1.06
CGATATGACA | 1.01
CTCCCCATAT | 2.47
CGTCTAGTCA | 0.984
TATTCCATAT | 1.83
GGATCGGTTA | 0.984
CTCTACGAAT | 1.06
GACTGGGTCA | 0.978
AGAGTAAAAT | 0.978
CTGTCTAATG | 1.01
TGTTTGCATT | 1.01
GTTGCGGGG | 0.991
GCTGTTTTG | 1.01
TCGTCAGTCG | 0.888
TCCTTTTCGC | 1.22
GAAGTTAGAC | 1.34
CGTTTTAATA | 1.03
TGCCTAAA | 0.971
AAAGCAGCAC | 1.61
TTATCGGCA | 1
ATTTAGAAG | 1.03
ACCCAGACTG | 1.27
TACTGGACGC | 1.32
GCTGGTATGG | 0.986
CTCATGATCC | 1.13
TCGCGTTTGA | 1.03

Sequence | switch fluorescence ratio
TGGGTCTGAG | 0.991
GGTTTTGTCT | 0.844
TACACAGGCG | 1.09
TATGATAAC | 1.01
GCCCCTGCAT | 1.02
ATTGCACCTG | 1.01
CACGGGAGCA | 1.02
ATGCCGTGTT | 1.05
GAAATTAGT | 1.05
TTGTCACCAT | 0.984
CTCTGTCCAC | 1.31
TGTGCCCCAT | 1.01
CGCCTTACGC | 1.14
TCAACGTAGT | 0.996
TCGTAAGGGG | 1.01
GTCATTGATA | 0.958
GAGCTGATTG | 0.999
CCATGGTTGC | 1.06
AGCGAGGCA | 1.02
CTCCTCATGA | 1.87
CTCACAAAT | 1.02
AATAACATAG | 1.03
GACAGTGGTG | 0.982
CATCTATGGG | 0.988
GCGGGAGAGC | 1.12
TTCTTGGTAC | 1.08

Sequence | switch fluorescence ratio
GCTGGAGACC | 0.997
TAAAAGTGGA | 1.09
GAGAAGTAAG | 1.03
TACGTGGAAC | 1.08
CAGTCCATTG | 1.01
GGACGACGAC | 1.2
TCCCCATTGT | 1.05
AGCGCCCGCA | 1.07
TCGTAATGAA | 1.04
GTAACATCTA | 1.02
CGATCCCTCT | 1.02
ACCGGCACA | 1.13
AGTCGGATTG | 0.938
CGCTTCACGA | 0.998
CGTGCTAAAC | 1.23
TTCTTGAAT | 0.984
AATGCACGAG | 1.04
GACCGTGGAG | 0.997
CTTTGAGGGA | 1.03
TGATGGTTG | 0.957
ATTAAATGGT | 0.979
CGTCTATTCA | 0.976
AAGAGATGCC | 0.961
ATAACTGTTG | 0.987
TATCGATTAG | 0.996
AGTTAATATT | 0.969

Sequence | switch fluorescence ratio
GGCAGCCACG | 1.03
CGGTAGGGAT | 0.997
TTGGCTCACC | 0.991
GCGCTGGGAG | 1.02
ACATTAATTT | 1
CGAAGCCAAG | 1.22
CAAGCAGCCC | 1.06
TGGATTACAT | 0.936
TGCCTGGAGG | 1.01
TTCATCCTTT | 1.06
GGGACCTTAC | 2.48
GGGATTTAAG | 1.02
CCGGACGGAT | 0.968
GAACGTATCA | 0.976
TTGGAGCTGA | 1.56
CATTAGGGAT | 0.993
CTAAGCCAAA | 0.966
ATTAACCGTT | 1.02
TTATGGTCG | 1.07
GGTACAGCTT | 0.973
CGTCATGTTC | 0.997
GGATGGAGAT | 1
ACCGGTGGCA | 1.04
GCAGGGCGCG | 0.998
TTGATCCGGA | 0.958
TCCACTACAT | 1.08

Sequence | switch fluorescence ratio
ACCATGTATA | 0.961
CATGTTGCAG | 0.962
GGTTGTGCTC | 0.982
AAGGCAGATT | 0.994
GTGTTAACCC | 0.991
ACTTGATAGA | 1.01
ATTTGAGCGG | 1.04
AGACGTTAGT | 0.951
GTTACCCTAG | 1.04
TATATTCAAA | 1.06
AGCCTAAATA | 1.01
GTGGTTTTGC | 0.963
GTCTTCTGGG | 1.03
TTATCATGAG | 1.02
TCGATAGGAA | 1
AGAAAGACA | 0.963
AGAAAAGTGC | 1.02
GGTTCCTATT | 1
TCACACATTA | 0.999
